Reference: publication PMC4336329 (PLoS ONE, 2015)
The campaign covered roughly 310,000 compounds. About 2,200 (0.71%) showed an effect of 50% or more. Effects have a minus sign here. The list shows a part of the results.

target: human ether-à-go-go-related gene (hERG) potassium channel (human, UniProt Q12809); assay: primary screen, population patch clamp on CHO cells stably expressing hERG
Sequence (Q12809 whole entry, looked up): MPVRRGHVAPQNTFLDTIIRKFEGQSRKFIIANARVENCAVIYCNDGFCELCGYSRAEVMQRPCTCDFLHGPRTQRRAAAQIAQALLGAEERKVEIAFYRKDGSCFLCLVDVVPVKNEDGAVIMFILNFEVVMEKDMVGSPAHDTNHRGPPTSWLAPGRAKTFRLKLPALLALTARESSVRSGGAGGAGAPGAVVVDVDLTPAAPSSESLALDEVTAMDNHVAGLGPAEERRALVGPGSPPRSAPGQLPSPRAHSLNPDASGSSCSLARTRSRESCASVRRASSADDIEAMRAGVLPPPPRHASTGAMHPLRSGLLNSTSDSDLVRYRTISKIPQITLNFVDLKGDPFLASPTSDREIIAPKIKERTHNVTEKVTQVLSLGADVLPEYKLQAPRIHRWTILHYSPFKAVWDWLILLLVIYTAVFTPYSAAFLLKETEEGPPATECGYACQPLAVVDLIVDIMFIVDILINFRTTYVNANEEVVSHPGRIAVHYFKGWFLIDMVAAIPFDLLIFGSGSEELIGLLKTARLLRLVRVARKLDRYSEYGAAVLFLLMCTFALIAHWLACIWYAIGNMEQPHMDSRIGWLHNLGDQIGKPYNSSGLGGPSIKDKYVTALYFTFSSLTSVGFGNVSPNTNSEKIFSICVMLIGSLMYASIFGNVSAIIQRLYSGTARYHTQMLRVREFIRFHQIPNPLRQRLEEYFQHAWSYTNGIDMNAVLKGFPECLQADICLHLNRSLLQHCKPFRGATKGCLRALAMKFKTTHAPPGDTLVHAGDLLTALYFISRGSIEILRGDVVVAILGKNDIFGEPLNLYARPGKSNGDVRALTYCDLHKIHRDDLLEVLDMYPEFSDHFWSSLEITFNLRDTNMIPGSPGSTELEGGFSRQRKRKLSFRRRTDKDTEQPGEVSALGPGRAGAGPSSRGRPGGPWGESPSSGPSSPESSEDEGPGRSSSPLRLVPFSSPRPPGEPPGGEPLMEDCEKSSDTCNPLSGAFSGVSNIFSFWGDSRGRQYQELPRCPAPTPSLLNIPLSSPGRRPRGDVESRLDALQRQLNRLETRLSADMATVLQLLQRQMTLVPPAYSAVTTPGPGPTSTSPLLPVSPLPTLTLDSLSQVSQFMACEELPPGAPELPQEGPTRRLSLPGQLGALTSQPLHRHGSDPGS

Row | Structure (SMILES) | hERG current change (%, negative = inhibition) at 1uM
1 | O=C(NCC(c1ccco1)N1CCc2ccccc2C1)c1ccccc1Cl (centres unmarked) | 1.71%
2 | CCOC(=O)C1CCN(C(=O)C2CCN(c3nnc(-n4cccc4)s3)CC2)CC1 | -35.3%
3 | O=C(COC(=O)/C=C/c1ccc([N+](=O)[O-])cc1)NCc1ccco1 | 0.176%
4 | Cc1ccc(NS(=O)(=O)c2c(C(=O)N3CCCC3)c(C)n(C)c2C)cc1 | 5.94%
5 | COc1cc(OC)c(OC)cc1CN1CCN(c2ccc(F)cc2)CC1 | -37%
6 | O=C(CN1CCN(c2ccccn2)CC1)Nc1ccccc1C(=O)Nc1ccccc1 | -10.3%
7 | CCOC(=O)C1=NN(C(=O)COc2ccccc2)C(O)(c2ccc(Br)cc2)C1 (centres unmarked) | -3.14%
8 | CCN(C(=O)CN1CCN(c2ccccc2F)CC1)c1c(N)n(Cc2ccccc2)c(=O)[nH]c1=O | 5.07%
9 | Cc1cc(OCC(=O)NCCN2CCOCC2)ccc1Br | 4.41%
10 | CCOC(=O)N1CCN(C(=O)C(c2ccccc2)c2ccccc2)CC1 | 12.8%
11 | C(=N\n1cnnc1)/c1cn(-c2cccs2)nc1-c1ccccc1 | -3.47%
12 | CCS(=O)(=O)c1ncc(CO)n1CCc1ccccc1 | 10.1%
13 | CCOC(=O)c1oc2ccccc2c1NC(=O)c1ccc(Cl)s1 | 11.8%
14 | CCCn1c2ccccc2c2cnn(CC(=O)NCCN(C)C)c(=O)c21 | -12.5%
15 | CCOC(=O)CN(C(=O)COC(=O)C1(c2ccccc2)CC1)c1ccc(F)cc1 | 24.2%
16 | CC1(C)Cc2c(sc3nc(SCC(=O)O)[nH]c(=O)c23)CO1 | 10.1%
17 | Cc1sc2ncnc(Sc3ccccc3C(=O)Nc3ccccc3Cl)c2c1C | 1.08%
18 | c1ccc(CCc2nc3ccccc3[nH]2)cc1 | 15%
19 | Cc1ccc(S(=O)(=O)CCC(=O)NCc2ccccc2)cc1 | 10.1%
20 | Cl.N=c1n(CCO)c2ccccc2n1Cc1ccccc1Cl | -5.09%
21 | COc1ccccc1-c1ccc(SCc2ccc(F)cc2)nn1 | 5.39%
22 | O=C(NC(Cc1ccccc1)C(=O)O)/C(=C/c1ccc(Cl)cc1)NC(=O)c1ccco1 (centres unmarked) | 18%
23 | CCn1c(=O)c(C(=O)NCc2ccccn2)c(O)c2ccccc21 | 10.1%

Row | Structure (SMILES) | hERG current change (%, negative = inhibition) at 1uM
24 | CCOC(=O)CC(=O)CSc1nnc(Cn2c(=O)sc3ccccc32)n1C | 12.9%
25 | COc1cc2nc(N3CCN(C(=O)c4ccco4)CC3)nc(N)c2cc1OC.Cl | -5.21%
26 | CCn1nc(-c2ccccc2)nc2c(=O)n(C)c(=O)nc1-2 | -7.24%
27 | CCOC(=O)c1cc2c(=O)n3ccccc3nc2n(CC2CCCO2)c1=NC(C)=O (centres unmarked) | 16.6%
28 | COc1ccc(C(=O)N2CCN(C(=O)Cc3ccccc3)CC2)cc1.O=C(O)C(=O)O | 0.55%
29 | Cc1nc(SCC(=O)N2CCC(Cc3ccccc3)CC2)[nH]c(=O)c1C | -5.21%
30 | O=C(CCS(=O)(=O)c1ccc(Cl)cc1)Nc1nnc(-c2ccco2)o1 | 8.43%
31 | COc1ccc(CN(CCC#N)CCC2(c3ccccc3)CC(C)N(C)CC2C)cc1OC.Cl (centres unmarked) | 13.2%
32 | Cc1ccc(NC(=O)COC(=O)CCc2nc3ccccc3c(=O)[nH]2)cc1Cl | 20.7%
33 | Oc1ccc(-c2cn3c(n2)SCC3)cc1O | -2.21%
34 | O=S(=O)(c1ccc(F)cc1)N1CCN(CCc2ccccc2)CC1 | 6.18%
35 | O=C(Cn1ccnc1[N+](=O)[O-])NCc1ccccc1 | 3.91%
36 | O=C(C1CC1)N1CCc2cc(S(=O)(=O)NCC3COc4ccccc4O3)ccc21 (centres unmarked) | 10%
37 | CC(C)c1cccc(C(C)C)c1OC(=O)[C@H]1OC(C(C)(C)C)=C[C@@H]1c1ccccc1 | -4.09%
38 | O=C(COc1ccc(Cl)cc1Cl)NC(=S)Nc1ccc(CN2CCOCC2)cc1 | 6.56%
39 | COc1ccc(CCN(C)C2CCCN(S(=O)(=O)c3ccccc3)C2)cc1OC (centres unmarked) | -64.9%
40 | Oc1ccccc1N1CCN(c2ncccn2)CC1 | 7.73%
41 | Cn1c(SCCC#N)nnc1-c1ccc(F)cc1 | 8.2%
42 | COc1ccc(/C=N/N2CCN(Cc3ccc(C)cc3)CC2)cc1Br | 15.1%
43 | CC(C)=CCN1CCN(CCCn2cccn2)CC1CCO (centres unmarked) | 1.54%
44 | Nc1c(Cl)cc(Cl)cc1C(=O)OCC(=O)N1CCCC1=O | 10.5%
45 | Cc1cccc(CCNC(=O)C2CCCN(c3ncnc4c3nc3n4CCCCC3)C2)c1 (centres unmarked) | -4.17%
46 | O=C(NC1CCN(C(=O)Nc2cccc(Cl)c2)CC1)c1ccco1 | 4.86%

Row | Structure (SMILES) | hERG current change (%, negative = inhibition) at 1uM
47 | O=C(N/N=C\c1ccc(-c2ccc([N+](=O)[O-])cc2)o1)C1COc2ccccc2O1 (centres unmarked) | 12.5%
48 | CCNC(=S)N1CCN(CC(=O)Nc2ccc(Br)cc2)CC1 | -30.5%
49 | CCOc1ccc(NC(=O)CSc2nc(-c3cccs3)cc(C(F)(F)F)n2)c([N+](=O)[O-])c1 | 0.249%
50 | COc1ccc(C(=O)OCC(=O)Nc2sccc2C(N)=O)cc1OC | 0.856%
51 | COc1cc(/C=N/O)ccc1OCc1ccc([N+](=O)[O-])cc1 | -3.66%
52 | CC(=O)c1cccc(NC(=O)c2cc(S(=O)(=O)N3CCOCC3)cs2)c1 | 13.8%
53 | CN1CCN(S(=O)(=O)c2cc([N+](=O)[O-])ccc2N2CCCCCC2)CC1 | -0.0485%
54 | N#CCC(=O)Nc1ccc(C(=O)OCC(=O)NC2CCCCCC2)cc1 | 14.1%
55 | Cc1nc(NCCc2ccccc2)c(C#N)c(C)c1[N+](=O)[O-] | 14.9%
56 | CNS(=O)(=O)c1cccc(C(=O)OCC(=O)N(Cc2ccccc2)C(C)(C)C)c1 | 16.1%
57 | CCC(CC)NC(=O)c1cc2c(C)nn(Cc3ccccc3Cl)c2s1 | 9.52%
58 | NNc1nc(-c2ccccc2)cc(-c2ccccc2)n1 | 18.4%
59 | CCc1cc(C(=O)OC)c(NC(=O)CCC(=O)O)s1 | 4.17%
60 | COc1ccc(Cc2noc(CN3CCN(c4ccc(Cl)cn4)CC3)n2)cc1OC | 7.29%
61 | Br.CCCCC1(C(=O)OCC)CC(CSC(=N)N)OC1=O (centres unmarked) | 7.06%
62 | O=C1N(Cc2cccnc2)C[C@@H]2C[C@@H](c3ccc4nsnc4c3)N3CCC[C@@]123 | -1.94%
63 | N#Cc1c(/N=C/c2ccco2)sc2c1CCCCC2 | -1.22%
64 | O=C(CCCC1=NS(=O)(=O)c2ccccc2N1)OCc1ccc(Cl)cc1 | -0.477%
65 | COc1ccccc1S(=O)(=O)Cc1ccc(C(=O)NCc2ccc3c(c2)OCO3)o1 | 6.9%
66 | N=c1c(C(=O)NCc2ccc(F)cc2)cc2c(=O)n3ccccc3nc2n1CC1CCCO1 (centres unmarked) | -85.3%
67 | CCN1CCN(C(=O)CN(c2ccccc2C)S(C)(=O)=O)CC1 | 9.16%
68 | FC(F)(F)c1ccc(CN2CCCCCC2)cc1 | 2.7%
69 | Cc1n[nH]c(C)c1Sc1ccccc1N=Cc1cc(Cl)cc([N+](=O)[O-])c1O | 2.48%

Row | Structure (SMILES) | hERG current change (%, negative = inhibition) at 1uM
70 | CC(C(=O)c1ccc(-c2ccccc2)cc1)[n+]1cccc(NC(=O)c2ccccc2)c1.[Br-] (centres unmarked) | 1.33%
71 | C=CC(=O)N=c1sc2ccccc2n1-c1ccccc1 | 12.3%
72 | COC(=O)c1c(NC(=O)c2ccccc2F)sc2c1C(C(=O)OC)CC2 (centres unmarked) | 14.6%
73 | O=C(NCC(c1cccs1)N1CCOCC1)c1cc(S(=O)(=O)N2CCOCC2)c(Cl)cc1Cl (centres unmarked) | 6.08%
74 | CCC(C)NC(=O)c1cc(-c2ccccc2O)on1 (centres unmarked) | 8.15%
75 | COc1cc(/C=C(/C#N)C(=O)NCCCc2ccccc2)ccc1OCC(=O)O | 11.7%
76 | O=C(NO)c1ccc(C(=O)N(C2CCCCC2)C2CCCCC2)cc1 | 3.06%
77 | Cc1cc(N2C(=O)c3ccccc3C2=O)n(C)n1 | 6.71%
78 | Cc1nc2[nH]onc2c2nccc(=O)c12 | 16.6%
79 | Cc1cc(C)n(-c2ccc(NC(=O)C3CCCCN3C(=O)c3sccc3C)cc2)n1 (centres unmarked) | 24.1%
80 | CCCSc1nc2c(c(=O)n(C)c(=O)n2C)n1Cc1ccc(C)cc1 | 7.28%
81 | CC(C)Oc1cccc(C(=O)NC(=S)Nc2cccnc2)c1 | 7.01%
82 | COc1ccc(Cc2nnc(SCC(=O)Nc3nc(C)cs3)o2)cc1 | -0.837%
83 | Cc1cc2ccccc2n1CCNC(=O)C1CC1 | -6.82%
84 | COCCN(C(=O)COC(=O)c1ccc(Cl)nc1)c1c(N)n(Cc2ccccc2)c(=O)[nH]c1=O | 13.1%
85 | O=C(Nc1ccccc1)Nc1ccccc1C(=O)NCC1CC1 | 12.7%
86 | COc1ccc(CC(=O)OCC(=O)c2ccc(OC)cc2)cc1 | 6.08%
87 | CNc1snc(C)c1C(=O)OCC(=O)c1ccc(Cl)cc1 | 7.88%
88 | Cc1ccccc1NC(=S)N1CCCCCC1 | 10.8%
89 | Nc1c(C(=O)O)nnn1Cc1ccccc1 | 10.1%
